From the supplement of paper PMC8728848
Some of the results follow.

How the values were obtained:
Test in all cases: glycan array binding signal (z-score within array); higher = stronger binding
Settings in all cases: glycan notation: IUPAC condensed, linker removed
[1] = target: Gal(b1-4)GlcNAc(b1-2)Man(a1-3)[Gal(b1-4)GlcNAc(b1-2)Man(a1-6)][GlcNAc(b1-4)]Man(b1-4)GlcNAc(b1-4)[Fuc(a1-6)]GlcNAc
Method in brief: (§1)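 Columns mapping to the same glycan were averaged after glycan names were converted to IUPAC-condensed notation. The data come from 3228 arrays in the Consortium for Functional Glycomics database, limited to those with an available protein sequence. Binding is reported as a within-array Z-score averaged across arrays of one protein sequence and across linkers.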

[2] = target: Gal(b1-4)GlcNAc(b1-2)Man(a1-3)[GlcNAc(b1-2)Man(a1-6)]Man(b1-4)GlcNAc(b1-4)GlcNAc
Method in brief: as §1

[3] = target: Gal(b1-4)GlcNAc(b1-2)Man(a1-3)[GlcNAc(b1-4)][Gal(b1-4)GlcNAc(b1-2)Man(a1-6)]Man(b1-4)GlcNAc(b1-4)GlcNAc
Method in brief: as §1

[4] = target: Gal(b1-4)GlcNAc(b1-2)Man(a1-3)[Man(a1-6)]Man(b1-4)GlcNAc(b1-4)GlcNAc
Method in brief: as §1

[5] = target: Gal(b1-4)GlcNAc(b1-2)Man(a1-6)Man(b1-4)GlcNAc(b1-4)GlcNAc
Method in brief: as §1

[6] = target: Gal(b1-4)GlcNAc(b1-2)Man(a1-6)[GlcNAc(b1-2)Man(a1-3)]Man(b1-4)GlcNAc(b1-4)GlcNAc
Method in brief: as §1

[7] = target: Gal(b1-4)GlcNAc(b1-2)Man(a1-6)[Man(a1-3)]Man(b1-4)GlcNAc(b1-4)GlcNAc
Method in brief: as §1

[8] = target: Gal(b1-4)GlcNAc(b1-2)[Gal(b1-4)GlcNAc(b1-4)]Man(a1-3)[Gal(b1-4)GlcNAc(b1-2)Man(a1-6)]Man(b1-4)GlcNAc(b1-4)GlcNAc
Method in brief: as §1

[9] = target: Gal(b1-4)GlcNAc(b1-2)[Gal(b1-4)GlcNAc(b1-4)]Man(a1-3)[Gal(b1-4)GlcNAc(b1-2)[Gal(b1-4)GlcNAc(b1-6)]Man(a1-6)]Man(b1-4)GlcNAc(b1-4)GlcNAc
Method in brief: as §1

[10] = target: Gal(b1-4)GlcNAc(b1-2)[Gal(b1-4)GlcNAc(b1-4)]Man(a1-3)[GlcNAc(b1-4)][Gal(b1-4)GlcNAc(b1-2)Man(a1-6)]Man(b1-4)GlcNAc(b1-4)GlcNAc
Method in brief: as §1

[11] = target: Gal(b1-4)GlcNAc(b1-2)[Gal(b1-4)GlcNAc(b1-4)]Man(a1-3)[GlcNAc(b1-4)][Gal(b1-4)GlcNAc(b1-2)[Gal(b1-4)GlcNAc(b1-6)]Man(a1-6)]Man(b1-4)GlcNAc(b1-4)GlcNAc
Method in brief: as §1

[12] = target: Gal(b1-4)GlcNAc(b1-2)[Gal(b1-4)GlcNAc(b1-6)]Man(a1-6)[Gal(b1-4)GlcNAc(b1-2)Man(a1-3)]Man(b1-4)GlcNAc(b1-4)GlcNAc
Method in brief: as §1

[13] = target: Gal(b1-4)GlcNAc(b1-2)[Gal(b1-4)GlcNAc(b1-6)]Man(a1-6)[Gal(b1-4)GlcNAc(b1-2)Man(a1-3)]Man(b1-4)GlcNAc(b1-4)[Fuc(a1-6)]GlcNAc
Method in brief: as §1

[14] = target: Gal(b1-4)GlcNAc(b1-2)[Gal(b1-4)GlcNAc(b1-6)]Man(a1-6)[GlcNAc(b1-4)][Gal(b1-4)GlcNAc(b1-2)Man(a1-3)]Man(b1-4)GlcNAc(b1-4)GlcNAc
Method in brief: as §1

[15] = target: Gal(b1-4)GlcNAc(b1-2)[Gal(b1-4)GlcNAc(b1-6)]Man(a1-6)[GlcNAc(b1-4)][Gal(b1-4)GlcNAc(b1-2)[Gal(b1-4)GlcNAc(b1-4)]Man(a1-3)]Man(b1-4)GlcNAc(b1-4)[Fuc(a1-6)]GlcNAc
Method in brief: as §1

[16] = target: Gal(b1-4)GlcNAc(b1-3)Gal(b1-3)GalNAc
Method in brief: as §1

[17] = target: Gal(b1-4)GlcNAc(b1-3)Gal(b1-3)GlcNAc
Method in brief: as §1

[18] = target: Gal(b1-4)GlcNAc(b1-3)Gal(b1-4)Glc
Method in brief: as §1

[19] = target: Gal(b1-4)GlcNAc(b1-3)Gal(b1-4)GlcNAc
Method in brief: as §1

[20] = target: Gal(b1-4)GlcNAc(b1-3)Gal(b1-4)GlcNAc(b1-2)Man(a1-3)[Gal(b1-4)GlcNAc(b1-3)Gal(b1-4)GlcNAc(b1-2)Man(a1-6)]Man(b1-4)GlcNAc(b1-4)GlcNAc
Method in brief: as §1

[21] = target: Gal(b1-4)GlcNAc(b1-3)Gal(b1-4)GlcNAc(b1-2)Man(a1-3)[Gal(b1-4)GlcNAc(b1-3)Gal(b1-4)GlcNAc(b1-2)Man(a1-6)]Man(b1-4)GlcNAc(b1-4)[Fuc(a1-6)]GlcNAc
Method in brief: as §1

[22] = target: Gal(b1-4)GlcNAc(b1-3)Gal(b1-4)GlcNAc(b1-2)[Gal(b1-4)GlcNAc(b1-3)Gal(b1-4)GlcNAc(b1-6)]Man(a1-6)[Gal(b1-4)GlcNAc(b1-3)Gal(b1-4)GlcNAc(b1-2)Man(a1-3)]Man(b1-4)GlcNAc(b1-4)GlcNAc
Method in brief: as §1

B1: Jacalin (Artocarpus integrifolia) (protein)
chain: MAYSSLLSLSVLALLFSISSADTRKWFLANGINQNPIGIIEAAVGVSEDLLNLNGMEAKNDEQSGISQTVIVGPWGAKVSTSSNGKAFDDGAFTGIREINLSYNKETAIGDFQVVYDLNGSPYVGQNHKSFITGFTPVKISLDFPSEYIMEVSGYTGNVSGYVVVRSLTFKTNKKTYGPYGVTSGTPFNLPIENGLIVGFKGSIGYWLDYFSMYLSL
With B1 the “glycan array binding signal (z-score)” value [1] was -0.268, the “glycan array binding signal (z-score)” value [2] was -0.24 and the “glycan array binding signal (z-score)” value [3] was -0.27. For the same binder, the “glycan array binding signal (z-score)” value [4] was -0.211, the “glycan array binding signal (z-score)” value [5] was -0.237 and the “glycan array binding signal (z-score)” value [6] was -0.153. The “glycan array binding signal (z-score)” value [7] was -0.106, the “glycan array binding signal (z-score)” value [8] was -0.262 and the “glycan array binding signal (z-score)” value [9] was -0.279. For the same binder, the “glycan array binding signal (z-score)” value [10] was -0.247, the “glycan array binding signal (z-score)” value [11] was -0.272 and the “glycan array binding signal (z-score)” value [12] was -0.269. The “glycan array binding signal (z-score)” value [13] was 0.164, the “glycan array binding signal (z-score)” value [14] was -0.267 and the “glycan array binding signal (z-score)” value [15] was -0.268. The “glycan array binding signal (z-score)” value [16] was 1.06, the “glycan array binding signal (z-score)” value [17] was -0.271 and the “glycan array binding signal (z-score)” value [18] was -0.275. The “glycan array binding signal (z-score)” value [19] was -0.291, the “glycan array binding signal (z-score)” value [20] was 0.045 and the “glycan array binding signal (z-score)” value [21] was 0.26. For the same binder, the “glycan array binding signal (z-score)” value [22] was -0.2.
